Whole data set: some 33,000 sequences, median “E-score (-0.5 to 0.5)” near -0.035, cut for the highest 2% near 0.34. The list shows a part of the results.
Target: T1, Mot3 (UniProt P54785)
T1 sequence: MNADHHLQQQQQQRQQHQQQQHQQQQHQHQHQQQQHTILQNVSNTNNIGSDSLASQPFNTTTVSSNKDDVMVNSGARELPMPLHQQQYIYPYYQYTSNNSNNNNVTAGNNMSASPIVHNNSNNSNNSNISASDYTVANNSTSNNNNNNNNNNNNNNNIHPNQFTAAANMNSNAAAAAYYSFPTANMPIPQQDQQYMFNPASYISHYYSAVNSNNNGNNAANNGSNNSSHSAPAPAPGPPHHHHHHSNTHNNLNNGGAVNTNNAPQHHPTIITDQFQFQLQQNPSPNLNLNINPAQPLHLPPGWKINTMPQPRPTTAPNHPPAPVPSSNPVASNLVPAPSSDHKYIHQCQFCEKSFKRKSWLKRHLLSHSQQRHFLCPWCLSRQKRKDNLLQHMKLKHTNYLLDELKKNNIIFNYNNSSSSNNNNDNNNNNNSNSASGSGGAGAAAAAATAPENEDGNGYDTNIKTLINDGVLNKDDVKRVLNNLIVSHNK
Assay: PBM E-score (8-mer binding enrichment) (E-score (-0.5 to 0.5)); higher = stronger / more preferred TF binding; most listed sequences are background and not binding sites
Settings: protein concentration: 200 nM; construct: GST-full length
Method in brief: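 Yeast transcription factors carrying a GST tag, as full-length proteins or DNA-binding domains, were produced by PURExpress in vitro transcription/translation. About 100-200 nM protein was applied to universal all-10-mer Agilent arrays, double-stranded by primer extension on fresh or once-stripped slides. Bound protein was detected with fluorescent anti-GST, and scans were normalised with masliner. The Universal PBM Analysis Suite gave each ungapped eight-base word, pooled with its reverse complement, an E-score, a modified Wilcoxon-Mann-Whitney statistic.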

| Sequence | PBM E-score |
| --- | --- |
| GGTATACC | -0.0472 |
| CACCGAGC | -0.125 |
| TATGAGCA | -0.0961 |
| TGTTGCAA | 0.22 |
| ATAGAGAG | -0.0812 |
| GAATTCGA | -0.112 |
| CTTATGAC | 0.034 |
| AGCATGTA | 0.354 |
| GCTGAGAA | -0.124 |
| CGTTATTC | 0.115 |
| GTAACAGA | 0.183 |
| CGTTACAA | 0.211 |
| CACTTAGA | 0.118 |
| GGAACGCA | 0.128 |
| GGACTCAA | -0.243 |
| ATAACGAG | 0.201 |
| AACCCAAA | 0.191 |
| ACTAGCTG | -0.0836 |
| CAGTGACA | 0.0778 |
| ATATAAAT | 0.136 |
| GAGCGGCA | -0.222 |
| CAAGCCCC | -0.0516 |
| AGTTAGCG | -0.0192 |
| CCCGCGAC | -0.27 |
| AGACCGTA | -0.147 |

| Sequence | PBM E-score |
| --- | --- |
| TCGCTTAA | 0.105 |
| TTGAACAA | 0.155 |
| AAAGTGTA | 0.199 |
| ACCTAACG | 0.111 |
| ATCTAAGG | -0.138 |
| ATCCGTGA | -0.141 |
| GACCTCGA | -0.139 |
| ACTAGATC | 0.053 |
| ATGCGTGG | -0.214 |
| CCCGGCAG | -0.235 |
| CAAGGATC | -0.0944 |
| ACGAAAGA | 0.163 |
| AGGCCCGA | -0.214 |
| ATTTATCA | 0.0158 |
| CATGTTTC | 0.24 |
| CTCGTAAA | 0.231 |
| TGATTGAA | 0.117 |
| CGCCCTAG | -0.386 |
| CACGTGGA | 0.103 |
| AACTGTCC | -0.122 |
| ATGACGCG | 0.219 |
| CTCACTTA | -0.0459 |
| GACTGCTC | -0.202 |
| CGGAACAG | -0.216 |
| GAAGCCGC | -0.242 |

| Sequence | PBM E-score |
| --- | --- |
| TCCCACCA | -0.0956 |
| GATAGCAC | -0.204 |
| CAGGCATA | 0.319 |
| GGGACGGA | -0.382 |
| AAGTACGA | 0.0191 |
| AACCGATT | -0.0255 |
| CGAACCAC | -0.252 |
| AGTGCTCC | -0.241 |
| AGAATCAG | -0.105 |
| GAGTAATC | 0.108 |
| GCTGGACC | -0.332 |
| GTAAATCA | 0.195 |
| AAAATGTT | 0.254 |
| ATGTATCA | 0.222 |
| GAGCGAAA | -0.0548 |
| CCCAGACC | -0.181 |
| CGAGTCCA | -0.266 |
| ACTTAACT | -0.00568 |
| CTCGGGCC | -0.12 |
| CAATGGAC | -0.189 |
| CTGGGCTC | -0.148 |
| CCGCCCAG | -0.106 |
| GACTGCTA | -0.251 |
| ACTGCATA | 0.093 |
| ATTTAGCG | -0.0648 |

| Sequence | PBM E-score |
| --- | --- |
| ACCACAAC | 0.177 |
| CACACTAA | 0.0759 |
| ACTCGTAT | 0.0531 |
| AGAGACCC | -0.235 |
| AGGCTGAA | -0.208 |
| GTGAGCGA | -0.185 |
| CAGGAGCG | -0.138 |
| CCGTCTCC | -0.265 |
| AAGGGTGA | -0.147 |
| GACCGTGC | -0.0459 |
| AATATCCT | -0.148 |
| GTCCATAA | -0.154 |
| ATCCGGTC | -0.336 |
| CCGGTCAG | -0.335 |
| GCCGAAGA | -0.14 |
| GGGGCAAA | -0.144 |
| AAATGCCT | 0.377 |
| GACATGTA | 0.355 |
| CATCTAAA | -0.021 |
| ACTGCAAC | -0.182 |
| GCCTAGCA | -0.0583 |
| CCGCGGCC | -0.214 |
| CGCTGCCG | -0.194 |
| TAACTAAA | 0.104 |
| GACGGGCC | -0.242 |

| Sequence | PBM E-score |
| --- | --- |
| CAGAGTAC | 0.0416 |
| ACGTCTTA | 0.0845 |
| GCTAAAAA | -0.0959 |
| AGAATCTG | -0.164 |
| CACGCATA | 0.0801 |
| CAACGCTG | -0.0398 |
| TGCCTAAA | 0.476 |
| AGCGTTTA | 0.122 |
| AGCGCCCA | -0.353 |
| GAAGTGAA | -0.0897 |
| GTCCGCTA | -0.0907 |
| ACTAGGTG | 0.125 |
| ATCTTACC | -0.152 |
| GCATAGGA | 0.0984 |
| ATCTCCCA | -0.211 |
| GCGCATAA | -0.29 |
| ATTAGGTA | 0.277 |
| GCGCCGCA | -0.00014 |
| CACTAACA | 0.204 |
| ATCGTCAT | 0.11 |
| ACACGAAC | 0.23 |
| CGTTTCAC | -0.056 |
| CGGGGCAA | -0.198 |
| CCTTCAAC | 0.247 |
| CCCGTACG | -0.27 |

| Sequence | PBM E-score |
| --- | --- |
| CCTGCCTC | -0.104 |
| ACGACTGG | -0.096 |
| CTGTCACC | -0.117 |
| CATGTCAG | 0.251 |
| CTTTAAAG | 0.178 |
| CTAGAATC | -0.0638 |
| GCTTGGCC | -0.362 |
| CATCACTC | -0.0208 |
| TCAGCCCA | -0.152 |
| GAAGCCTA | -0.0994 |
| GATCAAAC | -0.125 |
| AGTGAGCC | -0.0781 |
| AGTTGACG | -0.0717 |
| CCCTCAGA | -0.156 |
| ATGCCTCC | 0.0564 |
| CGGACACA | -0.162 |
| ACCGAAGT | 0.0497 |
| GGGAGGAC | -0.126 |
| AATAGTCC | -0.195 |
| GAACCCCC | -0.261 |
| CAGGATCC | 0.036 |
| AGACTATA | -0.0106 |
| AATTTCCT | 0.364 |
| CGACGTCA | -0.0551 |
| CAATTAAA | 0.123 |

| Sequence | PBM E-score |
| --- | --- |
| AGTAAACC | 0.0818 |
| TTAGAGAA | -0.141 |
| CACGGACG | 0.143 |
| CGCTTGCC | 0.193 |
| GCCTGGCA | 0.0408 |
| AATAAAAT | 0.155 |
| ATCTCCAC | -0.102 |
| AGCACCGG | -0.32 |
| GGTGTAGA | 0.139 |
| AGACATCT | -0.289 |
| AGCATCCT | -0.268 |
| AAGCGTTC | -0.0409 |
| GATTCCCA | -0.0771 |
| CGAATTCC | -0.147 |
| AGTCCCAC | -0.296 |
| GAGCATAC | -0.01 |
| ACAACCAA | 0.00653 |
| AAAGCTTA | 0.0241 |
| TCACTTCA | -0.22 |
| CGAAATAA | 0.00932 |
| GCAACAAC | 0.138 |
| ATGCAATA | -0.00066 |
